One molecule from the supplement of paper PMC8728848 can be followed below.

What all share (assay): glycan array binding signal (z-score within array); higher = stronger binding
Holding throughout (details): glycan notation: IUPAC condensed, linker removed

For experiment [1], the target named is Gal(b1-4)GlcNAc(b1-3)Gal(b1-4)Glc. An outline of the steps:
(§1)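 Negative Z-scores can be read as non-binding. The Z-score is calculated within each array and then averaged across arrays of one protein sequence at different concentrations or buffers and across linkers. Arrays, 3228 in all, were curated from the Consortium for Functional Glycomics database and kept only where the protein sequence was available.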

Experiment [2] addresses Gal(b1-4)GlcNAc(b1-3)Gal(b1-4)GlcNAc. The method in brief: as §1
In experiment [3] the target is Gal(b1-4)GlcNAc(b1-3)Gal(b1-4)GlcNAc(b1-2)Man(a1-3)[Gal(b1-4)GlcNAc(b1-3)Gal(b1-4)GlcNAc(b1-2)Man(a1-6)]Man(b1-4)GlcNAc(b1-4)GlcNAc. The method in brief: as §1
The target of experiment [4] is Gal(b1-4)GlcNAc(b1-3)Gal(b1-4)GlcNAc(b1-2)Man(a1-3)[Gal(b1-4)GlcNAc(b1-3)Gal(b1-4)GlcNAc(b1-2)Man(a1-6)]Man(b1-4)GlcNAc(b1-4)[Fuc(a1-6)]GlcNAc. An outline of the steps:
as §1

Experiment [5] deals with Gal(b1-4)GlcNAc(b1-3)Gal(b1-4)GlcNAc(b1-2)[Gal(b1-4)GlcNAc(b1-3)Gal(b1-4)GlcNAc(b1-6)]Man(a1-6)[Gal(b1-4)GlcNAc(b1-3)Gal(b1-4)GlcNAc(b1-2)Man(a1-3)]Man(b1-4)GlcNAc(b1-4)GlcNAc. An outline of the steps:
as §1

Experiment [6] addresses Gal(b1-4)GlcNAc(b1-3)Gal(b1-4)GlcNAc(b1-2)[Gal(b1-4)GlcNAc(b1-3)Gal(b1-4)GlcNAc(b1-6)]Man(a1-6)[Gal(b1-4)GlcNAc(b1-3)Gal(b1-4)GlcNAc(b1-2)Man(a1-3)]Man(b1-4)GlcNAc(b1-4)[Fuc(a1-6)]GlcNAc. The method in brief: as §1
Experiment [7] deals with Gal(b1-4)GlcNAc(b1-3)Gal(b1-4)GlcNAc(b1-3)Gal(b1-4)GlcNAc. An outline of the steps:
as §1

Experiment [8] addresses Gal(b1-4)GlcNAc(b1-3)Gal(b1-4)GlcNAc(b1-3)Gal(b1-4)GlcNAc(b1-2)Man(a1-3)[Gal(b1-4)GlcNAc(b1-3)Gal(b1-4)GlcNAc(b1-3)Gal(b1-4)GlcNAc(b1-2)Man(a1-6)]Man(b1-4)GlcNAc(b1-4)GlcNAc. An outline of the steps: as §1
In experiment [9] the target is Gal(b1-4)GlcNAc(b1-3)Gal(b1-4)GlcNAc(b1-3)Gal(b1-4)GlcNAc(b1-2)Man(a1-3)[Gal(b1-4)GlcNAc(b1-3)Gal(b1-4)GlcNAc(b1-3)Gal(b1-4)GlcNAc(b1-2)Man(a1-6)]Man(b1-4)GlcNAc(b1-4)[Fuc(a1-6)]GlcNAc. An outline of the steps: as §1
For experiment [10], the target named is Gal(b1-4)GlcNAc(b1-3)Gal(b1-4)GlcNAc(b1-3)Gal(b1-4)GlcNAc(b1-2)[Gal(b1-4)GlcNAc(b1-3)Gal(b1-4)GlcNAc(b1-3)Gal(b1-4)GlcNAc(b1-6)]Man(a1-6)[Gal(b1-4)GlcNAc(b1-3)Gal(b1-4)GlcNAc(b1-3)Gal(b1-4)GlcNAc(b1-2)Man(a1-3)]Man(b1-4)GlcNAc(b1-4)[Fuc(a1-6)]GlcNAc. The method in brief:
as §1

In experiment [11] the target is Gal(b1-4)GlcNAc(b1-3)Gal(b1-4)GlcNAc(b1-3)Gal(b1-4)GlcNAc(b1-3)Gal(b1-4)GlcNAc(b1-2)Man(a1-3)[Gal(b1-4)GlcNAc(b1-3)Gal(b1-4)GlcNAc(b1-3)Gal(b1-4)GlcNAc(b1-3)Gal(b1-4)GlcNAc(b1-2)Man(a1-6)]Man(b1-4)GlcNAc(b1-4)GlcNAc. An outline of the steps:
as §1

In experiment [12] the target is Gal(b1-4)GlcNAc(b1-3)Gal(b1-4)GlcNAc(b1-3)Gal(b1-4)GlcNAc(b1-3)Gal(b1-4)GlcNAc(b1-2)Man(a1-3)[Gal(b1-4)GlcNAc(b1-3)Gal(b1-4)GlcNAc(b1-3)Gal(b1-4)GlcNAc(b1-3)Gal(b1-4)GlcNAc(b1-2)Man(a1-6)]Man(b1-4)GlcNAc(b1-4)[Fuc(a1-6)]GlcNAc. An outline of the steps: as §1
Experiment [13] addresses Gal(b1-4)GlcNAc(b1-3)Gal(b1-4)GlcNAc(b1-3)Gal(b1-4)GlcNAc(b1-3)Gal(b1-4)GlcNAc(b1-2)[Gal(b1-4)GlcNAc(b1-3)Gal(b1-4)GlcNAc(b1-3)Gal(b1-4)GlcNAc(b1-3)Gal(b1-4)GlcNAc(b1-6)]Man(a1-6)[Gal(b1-4)GlcNAc(b1-3)Gal(b1-4)GlcNAc(b1-3)Gal(b1-4)GlcNAc(b1-3)Gal(b1-4)GlcNAc(b1-2)Man(a1-3)]Man(b1-4)GlcNAc(b1-4)[Fuc(a1-6)]GlcNAc. The method in brief: as §1
For experiment [14], the target named is Gal(b1-4)GlcNAc(b1-3)Gal(b1-4)GlcNAc(b1-3)Gal(b1-4)GlcNAc(b1-3)Gal(b1-4)GlcNAc(b1-3)Gal(b1-4)GlcNAc(b1-2)Man(a1-3)[Gal(b1-4)GlcNAc(b1-3)Gal(b1-4)GlcNAc(b1-3)Gal(b1-4)GlcNAc(b1-3)Gal(b1-4)GlcNAc(b1-3)Gal(b1-4)GlcNAc(b1-2)Man(a1-6)]Man(b1-4)GlcNAc(b1-4)GlcNAc. An outline of the steps: as §1
The target in experiment [15] is Gal(b1-4)GlcNAc(b1-3)Gal(b1-4)GlcNAc(b1-3)Gal(b1-4)GlcNAc(b1-3)Gal(b1-4)GlcNAc(b1-3)Gal(b1-4)GlcNAc(b1-2)Man(a1-3)[Gal(b1-4)GlcNAc(b1-3)Gal(b1-4)GlcNAc(b1-3)Gal(b1-4)GlcNAc(b1-3)Gal(b1-4)GlcNAc(b1-3)Gal(b1-4)GlcNAc(b1-2)Man(a1-6)]Man(b1-4)GlcNAc(b1-4)[Fuc(a1-6)]GlcNAc. An outline of the steps:
as §1

For experiment [16], the target named is Gal(b1-4)GlcNAc(b1-3)Gal(b1-4)GlcNAc(b1-3)Gal(b1-4)GlcNAc(b1-3)Gal(b1-4)GlcNAc(b1-3)Gal(b1-4)GlcNAc(b1-2)[Gal(b1-4)GlcNAc(b1-3)Gal(b1-4)GlcNAc(b1-3)Gal(b1-4)GlcNAc(b1-3)Gal(b1-4)GlcNAc(b1-3)Gal(b1-4)GlcNAc(b1-6)]Man(a1-6)[Gal(b1-4)GlcNAc(b1-3)Gal(b1-4)GlcNAc(b1-3)Gal(b1-4)GlcNAc(b1-3)Gal(b1-4)GlcNAc(b1-3)Gal(b1-4)GlcNAc(b1-2)Man(a1-3)]Man(b1-4)GlcNAc(b1-4)[Fuc(a1-6)]GlcNAc. The method in brief: as §1

Experiment [17] has as its target Gal(b1-4)GlcNAc(b1-3)Gal(b1-4)GlcNAc(b1-3)Gal(b1-4)GlcNAc(b1-3)Gal(b1-4)GlcNAc(b1-3)Gal(b1-4)GlcNAc(b1-3)Gal(b1-4)GlcNAc(b1-2)Man(a1-3)[Gal(b1-4)GlcNAc(b1-3)Gal(b1-4)GlcNAc(b1-3)Gal(b1-4)GlcNAc(b1-3)Gal(b1-4)GlcNAc(b1-3)Gal(b1-4)GlcNAc(b1-3)Gal(b1-4)GlcNAc(b1-2)Man(a1-6)]Man(b1-4)GlcNAc(b1-4)GlcNAc. An outline of the steps:
as §1

In experiment [18] the target is Gal(b1-4)GlcNAc(b1-3)Gal(b1-4)GlcNAc(b1-3)GalNAc. The method in brief:
as §1

In experiment [19] the target is Gal(b1-4)GlcNAc(b1-3)Gal(b1-4)GlcNAc(b1-3)[Gal(b1-4)GlcNAc(b1-3)Gal(b1-4)GlcNAc(b1-6)]GalNAc. An outline of the steps:
as §1

Some of the results follow.

B1: FGFR2-Fc (protein)
chain: MVNVTDAISSGDDEDDTDGAEDFVSENSNNKRAPYWTNTEKMEKRLHAVPAANTVKFRCPAGGNPMPTMRWLKNGKEFKQEHRIGGYKVRNQHWSLIMESVVPSDKGNYTCVVENEYGSINHTYHLDVVERSPHRPILQAGLPANASTVVGGDVEFVCKVYSDAQPHIQWIKHVEKNGSKYGPDGLPYLKVLKHSGINSSNAEVLALFNVTEADAGEYICKVSNYIGQANQSAWLTVLPKQQAPGREKEITASPDYLETRPLEQKLISEEDLAANDILDYKDDDDKV
Take B1: the “glycan array binding signal (z-score)” value in experiment [1] is 0.154; in experiment [2], -0.474; in [3] it was 0.351; in experiment [4] it was 0.691; in experiment [5], -0.015; in [6] it was 0.686. For the same molecule, the “glycan array binding signal (z-score)” value is -0.19 in experiment [7]; 0.197 in experiment [8]; -0.115 in experiment [9]; 0.515 in [10]; 1.4 in experiment [11]; 0.178 in experiment [12]. For the same molecule, the “glycan array binding signal (z-score)” value was -0.07 in experiment [13]; -0.013 in experiment [14]; -0.034 in experiment [15]; -0.087 in experiment [16]; -0.198 in experiment [17]; 0.243 in experiment [18]. For the same molecule, the “glycan array binding signal (z-score)” value in experiment [19] came out at 0.9.
